Experimental data: PubChem BioAssay AID504832 (National Center for Advancing Translational Sciences (NCATS), 2011)
The campaign covered roughly 310,000 compounds. About 18,000 (5.8%) were called active. This list was built around the results that the source calls inconclusive (neither active nor inactive); the mix of calls is not that of the screen. Calls come from the whole dose curve; as a rule, active = well fitted inhibition curve with a large enough effect; inconclusive = small, poorly fitted or top-dose-only effect, or another doubt; inactive = no such curve, though single readings can be large or run the other way. No potency is given beside an inconclusive call; the fits are too rough.

Assay: Primary qHTS for delayed death inhibitors of the malarial parasite plastid, 48 hour incubation
Details: P. falciparum luciferase growth in erythrocytes; series mostly up to 28.7 µM
Method in brief: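 Read-out is firefly luciferase luminescence from an integrated reporter in P. falciparum, so falling signal marks reduced parasite growth. Infected erythrocytes were at 2% hematocrit and 0.1% parasitemia (final) in Albumax-supplemented RPMI 1640.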
Potency is the fitted concentration of half-maximal effect; tags give direction and shape of the fitted curve.

SMILES	Potency
CCOc1ccc(C2=Nn3c(nnc3-c3ccccc3OC)SC2)cc1	active: 13.1 µM
O=C(C1CC1)N1CCc2sccc2C1c1ccc(Cl)cc1 (stereo not given)	inconclusive [inhibitor, single point]
COc1cccc(COC(=O)C2CCN(S(=O)(=O)c3ccc(C)cc3)CC2)c1OC	inconclusive [inhibitor, single point]
CCOC(=O)C1(Cc2ccccc2C)CCCN(Cc2cc(OC)c(O)c(OC)c2)C1 (stereo not given)	inconclusive [inhibitor, partial curve, poor fit]
O=C(N/N=C/c1ccc(OC(F)F)cc1OC(F)F)NC1CCCCC1	active: 10.4 µM
Cc1ccc(C)n1NC(=O)c1ccccc1O	inconclusive [inhibitor, single point]
CCc1cc2c(=O)c(-n3cnc4ccccc43)coc2cc1O	inconclusive [inhibitor, single point]
CCOc1ccc2[nH]c(SCC(=O)OC)c([N+](=O)[O-])c2c1	inactive
O=C(CSc1nnc2ccc(-c3ccccn3)nn12)Nc1ccccc1F	inactive
O=C(Nc1ccc(F)cc1F)NC1CCN(Cc2c(F)cccc2Cl)CC1	inconclusive [inhibitor, single point]
Cc1ccccc1Nc1c(-c2ccncc2)nc2ccc(Br)cn12	inconclusive [inhibitor, single point]
Cc1cccc(/C=N/n2c(C)nc3ccccc3c2=O)c1	inactive
CCOc1ccc(-n2c(C)cc(/C=N/Nc3nc(C)cc(=O)[nH]3)c2C)cc1	active: 1.65 µM
O=C(Nc1ccccc1N1CCN(C(=O)c2ccc(Cl)cc2)CC1)c1cc(Br)ccc1Cl	active: 6.57 µM
CN1CCN(c2ccc(NC(=O)c3ccc4c(c3)OCCO4)cc2)CC1	inactive
CCOC(=O)C(C)(C)Oc1ccc(Cl)cc1	inactive
CCc1nnc(NC(=O)[C@@H]2CCCN2S(=O)(=O)c2ccc3c(c2)OCCO3)s1	inconclusive [inhibitor, single point]
CCCN(C(=O)COC(=O)c1cc(CC)c(C)s1)c1c(N)n(Cc2ccccc2)c(=O)[nH]c1=O	inconclusive [inhibitor, full curve, poor fit]
COc1ccccc1N=Nc1nc(-c2ccccc2)c(-c2ccccc2)[nH]1	inactive
Cc1cc(NC(=O)CSc2nc3ccccc3c(=O)n2Cc2ccccc2)no1	inconclusive [inhibitor, single point]
COc1ccc(OC)c(/C=N/NC(=O)CNC(=O)c2cccc3ccccc23)c1	inconclusive [inhibitor, single point]
Cn1c(CN2CCN(C(=O)c3ccc(F)cc3)CC2)nc2cc([N+](=O)[O-])ccc21	inconclusive [inhibitor, partial curve]
COc1ccc(Cl)cc1C(=O)Nc1ccc(NC(=O)c2ccco2)cc1	inconclusive [inhibitor, single point]

SMILES	Potency
O=C(NCc1ccccc1)c1nnc(CS(=O)(=O)c2ccccc2)o1	inconclusive [inhibitor, partial curve, poor fit]
CC(C)OC(=O)c1c(NC(=O)Cn2cnc([N+](=O)[O-])n2)sc2c1CCCC2	inconclusive [inhibitor, single point]
COC(=O)C1C(=O)C2=C(CC1C)NC(C)=C(C(=O)OC(C)C)C2c1ccc(C)o1 (stereo not given)	inconclusive [inhibitor, single point]
O=[N+]([O-])c1cc(S(=O)(=O)Nc2cccc(Cl)c2)ccc1N/N=C/c1ccc(N2CCOCC2)cc1	active: 1.85 µM
COc1cccc(Nc2ncnc3c2cnn3C)c1	inactive
CC(C)(C)CC(=O)OCC(=O)Nc1cc(C(C)(C)C)nn1-c1ccccc1	inconclusive [inhibitor, single point]
CCOC(=O)c1cc(-c2ccc(N3CCOCC3)cc2)nn1-c1ccccc1	inconclusive [inhibitor, full curve]
CCOc1ccc(OCCSc2nc3ccccc3[nH]2)cc1	inactive
CC(=O)c1cc(-c2ccccc2)n(CC(=O)NC2CCCC2)c1C	inconclusive [inhibitor, single point]
CC(C)(C)NC(=O)c1oc2ccccc2c1COc1ccccc1	inconclusive [inhibitor, single point]
COc1ccc(C2(c3ccc(OC)cc3)NC(=O)N(CC(=O)Nc3ccc(OC(F)F)cc3)C2=O)cc1	active: 11.7 µM
Cc1cccn2c(=O)c3cc(C(=O)N4CC(C)CC(C)C4)sc3nc12 (stereo not given)	inactive
COc1ccc2c(c1)-c1c(sn(-c3ccc(OC)c(OC)c3)c1=S)C(C)(C)N2	inconclusive [inhibitor, partial curve, poor fit]
COc1ccc(CN2CC3CC(C2)c2cccc(=O)n2C3)cc1OC (stereo not given)	inactive
COc1cccc(OC)c1C(=O)Nc1ccccc1N1CCCCC1	inconclusive [inhibitor, single point]
CCSc1nc2ccccc2n1CC(=O)OC	inactive
CCC(C(=O)Nc1ccc(S(=O)(=O)Nc2ncccn2)cc1)c1ccccc1 (stereo not given)	inconclusive [inhibitor, full curve, poor fit]
CC(C)C(=O)NC(=S)/C=C1/N(C)c2ccccc2C1(C)C	inconclusive [inhibitor, partial curve, poor fit]
N#CC1=C(N)N(c2ccc(Br)cc2)C2=C(C(=O)CCC2)C1c1cccnc1 (stereo not given)	inconclusive [inhibitor, single point]
Cc1nc(NCCCn2ccnc2)c2oc3ccccc3c2n1	inconclusive [inhibitor, single point]
Cn1c(=O)c2c(ncn2CC(=O)Nc2nc(-c3ccc(F)c(F)c3)cs2)n(C)c1=O	inconclusive [inhibitor, single point]
CC(=O)N(CC(=O)Nc1sc(C)c(C)c1C(N)=O)Cc1ccccc1	inactive
